Assay results from ChEMBL document CHEMBL4888484, “Replenishing the malaria drug discovery pipeline: Screening and hit evaluation of the MMV Hit Generation Library 1 (HGL1) against asexual blood stage Plasmodium falciparum ,using a nano luciferase reporter read-out” (2022).
Screen size: about 150,000 compounds; about 540 (0.36%) showed an effect of 50% or more. Some of the results follow.

Tested on: Plasmodium falciparum
Experiment: Primary screen in NF54 nanoGlo assay, in single point, at 2uM, 72h; a lower Z score goes with more inhibition
Assay type: functional, Erythrocyte
Settings: timepoint 72 hour

What does the source list for `CCOc1ncccc1-c1ccc(=O)n(C)n1`?
% Inhibition: -5%; Z score: 0.42

With `CC[C@H]1C[C@@H]1CN1CCN(S(=O)(=O)NC(C)C)CC1` as the compound, how does the “% Inhibition” value read?
Its value is 6%.

What about the Z score of the same compound?
Its Z score is -1.19.

For `Cc1cc(-c2cc(S(=O)(=O)NC(C)(C)C)c(C)s2)on1`, which “% Inhibition” value is on record?
Its value is 1%.

And the Z score?
Its Z score is -0.14.

How did the “% Inhibition” value turn out when `NC(=O)c1cc(S(=O)(=O)C(F)(F)F)cc(S(=O)(=O)C(F)(F)F)c1` was run?
The value was -33%.

And the Z score?
The Z score was 3.88.

With `CN1C(=O)CC[C@H]1C(=O)NCc1nc(COc2ccccc2)n[nH]1` as the compound, how does the “% Inhibition” value read?
Its value is 3%.

What about the Z score of the same compound?
Its Z score is -0.32.

Which results are given for `COc1ccc(OC)c(N2CCCNC2=O)c1`?
% Inhibition: -3%; Z score: 0.55

What does the source list for `CC(C)Oc1cccc(CC(=O)N2CCCC[C@H]2c2ncon2)c1`?
% Inhibition: -9%; Z score: 1.13

What does the source list for `Cc1cc(C(=O)N2Cc3ccccc3C2)c(=O)[nH]c1C`?
% Inhibition: -6%; Z score: 1.04

With `Cc1ccc(-c2cc(C(=O)Nc3ccc4c(c3)OCCO4)c3ccccc3n2)s1` as the compound, how does the “% Inhibition” value read?
Its value is 32%.

What about the Z score of the same compound?
Its Z score is -3.66.

Which results are given for `OCC1CCCCCC1NCc1nnc(-c2ccc(Cl)cc2)o1` (stereo not given)?
% Inhibition: -16%; Z score: 1.65

Which results are given for `CC(NC(=O)N(C)CC1CCN(C)C1)c1csc2ccccc12` (stereo not given)?
% Inhibition: -12%; Z score: 0.97

With `O=C1CCc2cc(NC(=O)NCc3ccc(C4CC4)cc3)ccc2N1` as the compound, how does the “% Inhibition” value read?
The value was 0%.

What about the Z score of the same compound?
The Z score was 0.

Which “% Inhibition” value does the source give for `CC1CCN(c2cncnc2-n2cc(NC(=O)C3CCCC3)cn2)CC1` here?
Its value is -9%.

What about the Z score of the same compound?
Its Z score is 1.02.

With `Cc1c(CC(=O)Nc2cc(F)cc(F)c2)c(=O)n2nc(-c3ccccc3)nc2n1Cc1ccccc1` as the compound, how does the “% Inhibition” value read?
The value was 7%.

And the Z score?
The Z score was -0.9.

`Cc1nnc(CN[C@H](c2ccccc2)C2(CO)CCOCC2)s1` was tested. Which “% Inhibition” value did it give?
The value was 10%.

What about the Z score of the same compound?
The Z score was -1.24.

Which results are given for `CN(Cc1nccn1C)C(=O)NCCC1=CCCCC1`?
% Inhibition: -4%; Z score: 0.4

Which results are given for `CC1CC(NC(=O)N2CC(C3CCC3)C2)C1` (stereo not given)?
% Inhibition: -12%; Z score: 1.72

`Cc1c(C(=O)N2CCCCCC2CC(O)c2ccco2)cnn1C` (stereo not given) was tested. Which “% Inhibition” value did it give?
The value was 1%.

What about the Z score of the same compound?
Its Z score is -0.16.

What does the source list for `c1cc(Cn2ccnc2-c2c[nH]cn2)c2cc[nH]c2c1`?
% Inhibition: -13%; Z score: 1.52

Which “% Inhibition” value does the source give for `CCOC(=O)[C@@](C)(C#N)Cc1ccncc1` here?
The value was -16%.

And the Z score?
The Z score was 1.65.

With `COc1ccccc1C1CC1NC(=O)Nc1nnc(C(F)F)s1` (stereo not given) as the compound, how does the “% Inhibition” value read?
The value was -8%.

What about the Z score of the same compound?
The Z score was 1.56.

What does the source list for `c1cncc(C2CN(c3nccnc3N3CCCC3)C2)c1`?
% Inhibition: 3%; Z score: -0.43

`Cc1ncoc1C(=O)N1CCn2nc([C@@H](O)Cc3ccccc3)cc2C1` was tested. Which “% Inhibition” value did it give?
Its value is -4%.

And the Z score?
The Z score was 0.67.

Which results are given for `CN(CC#N)[C@H](c1ccc(Cl)cc1)C(F)(F)F`?
% Inhibition: -12%; Z score: 1.33

With `O=C(Nc1n[nH]c2c(Cl)cccc12)C1CCN(CC(F)F)CC1` as the compound, how does the “% Inhibition” value read?
Its value is -5%.

And the Z score?
Its Z score is 0.67.

For `COc1ccc(-n2nc(C(=O)N3CCN(C(C)=O)CC3)c(=O)n(Cc3cccc(F)c3)c2=O)cc1OC`, which “% Inhibition” value is on record?
Its value is -3%.

And the Z score?
Its Z score is 0.47.

What does the source list for `CCn1c(=O)c(-c2ccc(C(=O)NCc3cc(OC)ccc3OC)cc2)nc2ccccc21`?
% Inhibition: -12%; Z score: 2.25

How did the “% Inhibition” value turn out when `CNS(=O)(=O)NC1CCCCC1OC` (stereo not given) was run?
Its value is 0%.

And the Z score?
Its Z score is -0.01.

Which “% Inhibition” value does the source give for `COc1ccc(S(=O)(=O)Nc2ccc(N3CCC(N4CCCCC4)CC3)c(C(=O)O)c2)cc1` here?
The value was -11%.

What about the Z score of the same compound?
The Z score was 1.08.

`CN(C/C=C/c1ccccc1)C(=O)c1ccc2nc(-c3ccccc3)cn2c1` was tested. Which “% Inhibition” value did it give?
The value was 2%.

What about the Z score of the same compound?
Its Z score is -0.28.

Which results are given for `FC(F)(F)c1nnc2n1CCN(c1nnnn1-c1ccccc1)C2`?
% Inhibition: -7%; Z score: 0.63

What does the source list for `Nc1c2c(-c3cccc(Cl)c3)nc(NCC3CC3)nc2nn1-c1ccccc1Cl`?
% Inhibition: -19%; Z score: 2.45

What does the source list for `O=C(NCC1CCCCC1)C1CCCCC1`?
% Inhibition: -14%; Z score: 1.36

What does the source list for `O=C(O)c1ccc(CN2CC(c3cccnc3)C2)cc1`?
% Inhibition: -14%; Z score: 1.85

What does the source list for `Cc1cccc(C(=O)N2[C@H](C(=O)N3CCCC3)COC23CCN(C(=O)c2ccc(Cl)c(Cl)c2)CC3)c1`?
% Inhibition: -12%; Z score: 1.2

How did the “% Inhibition” value turn out when `COC[C@H]1COCCN1C(=O)c1cnc2n1CCCCC2` was run?
The value was 3%.

What about the Z score of the same compound?
Its Z score is -0.61.

Which “% Inhibition” value does the source give for `Cn1nc(-c2cnccn2)cc1CNS(=O)(=O)c1cccs1` here?
Its value is 14%.

And the Z score?
Its Z score is -1.75.

Which results are given for `O=C(NCC(=O)c1cccc2ccccc12)c1cscn1`?
% Inhibition: -9%; Z score: 1.32

Which results are given for `CN(CCc1cccc2ccccc12)CC1OCCO1`?
% Inhibition: -11%; Z score: 1.48

For `CCCCNC(=O)c1cccnc1Oc1cccc(NS(=O)(=O)c2ccc(C)cc2)c1`, which “% Inhibition” value is on record?
Its value is -7%.

And the Z score?
The Z score was 1.09.

For `NC[C@H]1Cc2cccc(-c3cc(C4CC4)ncn3)c2O1`, which “% Inhibition” value is on record?
The value was 8%.

What about the Z score of the same compound?
The Z score was -1.56.

Which results are given for `Cc1ccc(CN2CCN(Cc3c(C)nn(C(C)C)c3C)C[C@@H]2CCO)o1`?
% Inhibition: 0%; Z score: 0.02

With `Cc1cc(C(=O)O[C@@H](C)c2ccc(Cl)cn2)on1` as the compound, how does the “% Inhibition” value read?
Its value is 3%.

What about the Z score of the same compound?
Its Z score is -0.45.

With `CN(C)C(C)(C)C(=O)NCc1ccccc1Cl` as the compound, how does the “% Inhibition” value read?
Its value is 7%.

What about the Z score of the same compound?
Its Z score is -1.26.

How did the “% Inhibition” value turn out when `N#CCC(=O)Nc1ccccc1-c1ncc2n1CCCC2` was run?
Its value is -4%.

And the Z score?
The Z score was 0.4.

Which “% Inhibition” value does the source give for `Cc1oc(-c2cccc(Cl)c2)nc1CN1CCN(S(=O)(=O)c2ccccc2)CC1` here?
The value was -2%.

And the Z score?
The Z score was 0.4.

With `NC(CC1CC1)=NOCC(=O)N1CCCCCCC1` as the compound, how does the “% Inhibition” value read?
Its value is 0%.

What about the Z score of the same compound?
Its Z score is -0.05.

Which “% Inhibition” value does the source give for `CCCOCC(=O)NC[C@@H]1CCCC[C@@H]1N1CCOCC1` here?
Its value is -15%.

And the Z score?
The Z score was 1.92.

What does the source list for `Cc1n[nH]cc1C1CCN(C(=O)C[C@H]2CCCN(C(=O)NCC(C)C)C2)CC1`?
% Inhibition: -3%; Z score: 0.32

With `NS(=O)(=O)c1ccc(CNC(=O)c2[nH]nc3c2CCC3)cc1` as the compound, how does the “% Inhibition” value read?
The value was -2%.

And the Z score?
Its Z score is 0.29.

Which “% Inhibition” value does the source give for `CCC(NS(=O)(=O)c1cc(C)cc(C)c1)[C@H]1C[C@H](O)C1` (stereo not given in full) here?
Its value is 5%.

What about the Z score of the same compound?
Its Z score is -1.05.

What does the source list for `Cc1n[nH]c(CN(C)CCn2ccnc2)c1Cl`?
% Inhibition: 7%; Z score: -1.16

With `CCOc1cccc(C2CC(c3cccc(OC)c3)=NC(C(C)C)N2)c1O` (stereo not given) as the compound, how does the “% Inhibition” value read?
Its value is 3%.

What about the Z score of the same compound?
The Z score was -0.41.

Which “% Inhibition” value does the source give for `CCCCN(C)C(=O)[C@H]1CCCN(c2cccc3c2C(=O)N(c2cccc(Cl)c2)C3=O)C1` here?
Its value is -13%.

What about the Z score of the same compound?
The Z score was 1.69.

Which results are given for `COc1ccc(-c2nc(NCc3ccco3)n(S(=O)(=O)c3ccccc3)n2)cc1`?
% Inhibition: -11%; Z score: 1.36
